In PubChem BioAssay AID1345082 (National Center for Advancing Translational Sciences (NCATS), 2018):
In all, about 94,000 compounds went through this assay and about 4,000 (4.3%) were called active. The shares of active, inactive and inconclusive entries below differ from those in the screen. Calls come from the whole dose curve; as a rule, active = well fitted inhibition curve with a large enough effect; inconclusive = small, poorly fitted or top-dose-only effect; inactive = no such curve, though single readings can be large or run the other way. Where the call is inconclusive, the potency comes from a doubtful curve fit.

assay: Cytotoxic Profiling in NIH 3T3 Cell Line of Diverse Libraries Using Quantitative High-Throughput Screening; conditions: NIH 3T3 viability, CellTiter-Glo ATP luminescence, 48-72 h; activity change, negative = cytotoxicity: at 96.7 µM (top of the series) unless noted; series mostly up to 96.7 µM; note: nearly all actives have a fitted effect of over 55% in size
Method in brief: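 First NIH 3T3 cells are plated at 400 cells/well; next compound is pinned in; then plates incubate 48 or 72 hr at 37 °C; finally CellTiter-Glo is added and luminescence read after 10 min.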
% is set by controls: 0 for no effect and ±100 for the full control effect; potency is the fitted concentration of half-maximal effect; tags give direction and shape of the fitted curve.

| SMILES | Potency | activity change, negative = cytotoxicity | outcome |
| --- | --- | --- | --- |
| CC1=C[C@@H](CN2CCN(c3ncccn3)CC2)[C@H](C(C)C)C[C@H]1Cc1nnc(-c2ccc(N(C)C)cc2)o1 | inconclusive: 35.5 µM [inhibitor, partial curve, poor fit] | – | – |
| CC(C)NC(=O)c1nc(C(C)(C)C)c2cnccn12 | inconclusive: 56.2 µM [inhibitor, partial curve, poor fit] | – | – |
| CC(C)CNC(=O)N1CCCCC1c1nc(CCOc2ccc(F)cc2)no1 (centres undefined) | inconclusive: 39.8 µM [inhibitor, partial curve, poor fit] | – | – |
| COc1ccc(-c2ccc(C(=O)N(C)Cc3ccccc3)cc2)nn1 | inconclusive: 89.1 µM [inhibitor, partial curve] | – | – |
| C#CCNC(=O)c1cc(-c2ccc(OC)cc2)nc2c1cnn2C | active: 50.1 µM | – | – |
| CCN1c2cc(C(=O)Nc3cccc(C(=O)OC)c3)ccc2C(=O)N2CCCCCC21 (centres undefined) | active: 17.8 µM | – | – |
| CNC(=O)c1cc(C2CC2)nc2c1c(C1CCN([S+](=O)([O-])c3c(C)noc3C)C1)nn2C (centres undefined) | inconclusive: 56.2 µM [inhibitor, partial curve, poor fit] | – | – |
| O=C(Nc1cc(-c2ccccn2)nn1-c1ccccc1)c1ccccc1Cl | – | inactive: -19.6% | – |
| CCc1ccc(CN2CCC(Oc3ccc(C(=O)NCCOC)cc3Cl)CC2)o1 | inconclusive: 44.7 µM [inhibitor, partial curve, poor fit] | – | – |
| COc1ccc(CC(=O)NC[C@@H]2CC[C@H]3C[C@@H]2C3(C)C)cc1 | inconclusive: 56.2 µM [inhibitor, partial curve, poor fit] | – | – |
| CC(=O)N1CCC2(CCN(C(=O)c3ccc(Cl)cc3)CC2)Oc2ccccc21 | inconclusive: 44.7 µM [inhibitor, partial curve, poor fit] | – | – |
| COc1cccc([S+](=O)([O-])N2CCN(CCCn3nc4n(c3=O)CCCC4)CC2)c1 | – | inactive: -21.1% | – |
| CCn1nc(CC(C)C)cc1C(=O)N(C)C1CCCN(C2Cc3ccccc3C2)C1 (centres undefined) | inconclusive: 56.2 µM [inhibitor, partial curve, poor fit] | – | – |
| O=C(CC1CC1)NC1CCCc2nc(-c3ccccc3)ncc21 (centres undefined) | – | inactive: -1.17% | – |
| CSc1ccc(NC(=O)c2cc3c(N4CCSCC4)nc(C)cn3n2)cc1 | inconclusive: 50.1 µM [inhibitor, partial curve, poor fit] | – | – |
| CC(=O)N1CCC(C2CCN(Cc3ccccc3C)C2)CC1 (centres undefined) | – | inactive: -18% | – |
| COc1cccc(-c2nnnn2[C@H]2CO[C@H]3[C@@H]2OC[C@@H]3NC(=O)c2ccc(C)cc2)c1 | inconclusive: 70.8 µM [inhibitor, partial curve] | – | – |
| Cc1ccc(OCc2nc(C3CCN(C(=O)NCc4ccccc4)C3)no2)cc1 (centres undefined) | inconclusive: 44.7 µM [inhibitor, partial curve, poor fit] | – | – |
| COc1ccccc1-c1cccc(CN2CCC(NC(=O)Nc3ccc(C)c(F)c3)CC2)c1 | active: 20 µM | – | – |
| Cc1nn(-c2ccccc2)c2c1C(C1CC1)N(C1CN(C(=O)Cc3ccc(F)cc3)C1)C2=O (centres undefined) | inconclusive: 11.2 µM [inhibitor, full curve, poor fit] | – | – |

| SMILES | Potency | activity change, negative = cytotoxicity | outcome |
| --- | --- | --- | --- |
| COCCN1C(=O)c2cccn2CC1CNC(=O)CCc1nc2ccccc2s1 (centres undefined) | – | inactive: -2.58% | – |
| CC(C)(O)CCc1cccc(C(=O)NCC(O)c2ccccc2Cl)c1 (centres undefined) | – | inactive: -24.1% | – |
| CCOc1ccc(S(=O)(=O)N2CCN(C3(CC)CCN(C(=O)NC)C3)CC2)cc1 (centres undefined) | inconclusive: 44.7 µM [inhibitor, partial curve, poor fit] | – | – |
| CC(=O)Nc1ccc(CN2C(=O)OC3(CCN(C(=O)c4ccnn4C)CC3)C2(C)c2ccccc2)cc1 (centres undefined) | inconclusive: 44.7 µM [inhibitor, partial curve, poor fit] | – | – |
| CC(C)CN1CC(COc2ccc3ccccc3c2)Oc2ccnc(-c3ccc(OCC(=O)O)cc3)c2C1=O (centres undefined) | inconclusive: 89.1 µM [inhibitor, single point] | – | – |
| CN1C(=O)C2(CCN(C(=O)NC3CCCCC3)CC2)c2ccccc21 | inconclusive: 70.8 µM [inhibitor, partial curve, poor fit] | – | – |
| CCn1nc(CC(C)C)cc1C(=O)N1CCN(CCn2cccc2)CC1 | inconclusive: 50.1 µM [inhibitor, partial curve, poor fit] | – | – |
| Cn1cnc(S(=O)(=O)N2CCC(Cc3nncn3CC3CC3)C2)c1 (centres undefined) | – | inactive: -6.7% | – |
| c1cncc(Nc2cc3c(cn2)CN(CC2CCOCC2)CCN3)c1 | inconclusive: 89.1 µM [inhibitor, single point] | – | – |
| CN1CCCCCC(O)c2cc(C(=O)NCc3cccc(C(F)(F)F)c3)ccc21 (centres undefined) | inconclusive: 35.5 µM [inhibitor, partial curve, poor fit] | – | – |
| Cc1ccc(C(=O)N2CCC3(CC2)CC(N(Cc2ccccc2)C2CC2)CCO3)s1 (centres undefined) | inconclusive: 44.7 µM [inhibitor, partial curve, poor fit] | – | – |
| O=C(c1ccc(F)c(F)c1)N1CCC2(CC1)NC(=O)N(Cc1ccccc1)C2=O | – | inactive: -34.3% | – |
| COc1ccc(C2(C(=O)N3c4ccccc4CC3c3noc(C4CCOCC4)n3)CC2)cc1 (centres undefined) | inconclusive: 50.1 µM [inhibitor, partial curve, poor fit] | – | – |
| COc1ccc(CCNC(=O)c2cc3n(n2)CC(c2ccc4c(c2)OCO4)OC3)cc1OC (centres undefined) | inconclusive: 50.1 µM [inhibitor, partial curve, poor fit] | – | – |
| O=C1[C@@H]2C[C@@H](CN2C2COC2)Oc2ccccc2N1Cc1ccc(OC(F)(F)F)cc1 | inconclusive: 56.2 µM [inhibitor, partial curve, poor fit] | – | – |
| O=c1cc(CN2CCCC(CCc3ccccc3C(F)(F)F)C2)[nH]c(=O)[nH]1 (centres undefined) | inconclusive: 31.6 µM [inhibitor, partial curve, poor fit] | – | – |
| O=C(C1CC1)N1CCC(OC2CCN(Cc3cccnc3)CC2)CC1 | – | – | inactive |
| CCCCn1c(=O)c(C(=O)NCc2ccc(F)cc2)nc2cccnc21 | inconclusive: 44.7 µM [inhibitor, partial curve, poor fit] | – | – |
| COc1cccc(C(O)c2nc(C(=O)N3CCN(c4ccccn4)CC3)c(C)o2)c1 (centres undefined) | – | inactive: -8.16% [at 138 µM] | – |
